Results published in a compilation of properties of binary mixtures (doi:10.1016/j.molliq.2016.09.077).
Some of these densities may be calculated back from excess volumes.

Test: xn = mol fraction of the nth substance listed
Details: 100 kPa

CC[n+]1ccn(C)c1.O=S(=O)([N-]S(=O)(=O)C(F)(F)F)C(F)(F)F + CCOC(C)=O
mass density [kg/m3]
Details | 298.15 K | 303.15 K | 308.15 K | 313.15 K | 318.15 K | 323.15 K
x2 = 0 | 1518.1 | 1512.9 | – | 1502.8 | 1497.8 | 1492.8
x2 = 0.0433 | 1507.2 | 1502 | 1497 | 1491.9 | – | 1481.9
x2 = 0.0986 | 1494.5 | 1489.4 | 1484.3 | 1479.2 | 1474.1 | 1469.3
x2 = 0.1858 | 1470.2 | 1465 | 1459.9 | 1454.7 | – | 1444.5
x2 = 0.2977 | 1437.7 | – | – | 1421.7 | 1416.5 | 1411.3
x2 = 0.3962 | 1406.5 | – | 1396 | – | – | 1380.4
x2 = 0.5051 | 1360.9 | 1355.8 | 1350.6 | – | – | 1335.1
x2 = 0.5961 | 1309.9 | – | 1299.1 | 1293.7 | 1288.4 | 1283
x2 = 0.6909 | 1243 | 1237.5 | 1232 | 1226.4 | 1220.9 | –
x2 = 0.7974 | 1152.6 | – | 1141.2 | 1135.5 | 1129.9 | 1124.3
x2 = 0.8979 | 1041.9 | – | 1029.8 | 1023.7 | – | 1011.6

CCOC(C)=O + CC[n+]1ccn(C)c1.O=S(=O)([N-]S(=O)(=O)C(F)(F)F)C(F)(F)F
x1 = 1
Details | mass density [kg/m3]
298.15 K | 894.5
308.15 K | 882.2
313.15 K | 876
318.15 K | 869.7
323.15 K | 863.4

CO + CC[n+]1ccn(C)c1.O=S(=O)([N-]S(=O)(=O)C(F)(F)F)C(F)(F)F
x1 = 1
Details | mass density [kg/m3]
303.15 K | 782.2
313.15 K | 772.6
323.15 K | 763

CC[n+]1ccn(C)c1.O=S(=O)([N-]S(=O)(=O)C(F)(F)F)C(F)(F)F + CO
mass density [kg/m3]
Details | x2 = 0 | x2 = 0.0938 | x2 = 0.1965 | x2 = 0.2889 | x2 = 0.4005 | x2 = 0.5088 | x2 = 0.5988 | x2 = 0.6909 | x2 = 0.7961 | x2 = 0.8978
298.15 K | 1518.1 | 1506.6 | 1491.5 | 1475.2 | 1450.3 | 1418.3 | – | 1332.1 | 1245.2 | 1098
303.15 K | 1512.9 | 1501.5 | 1486.5 | 1470.2 | 1445.3 | 1413.3 | 1377.7 | 1327.4 | 1240.8 | 1093.4
308.15 K | 1507.8 | 1496.5 | 1481.7 | 1465.3 | – | 1408.5 | 1372.9 | 1322.7 | 1236.4 | –
313.15 K | 1502.8 | 1491.5 | 1476.8 | 1460.4 | – | – | 1368.1 | – | 1230.6 | 1083.9
318.15 K | 1497.8 | 1486.6 | – | 1455.6 | 1430.8 | 1398.8 | 1363.4 | 1313.9 | 1227.5 | 1079.1
323.15 K | 1492.8 | 1481.7 | 1467.2 | 1450.8 | 1426 | 1394.1 | 1358.8 | 1309.3 | – | 1074.5
